# From PubChem BioAssay AID1461 (National Center for Advancing Translational Sciences (NCATS), 2008)
# Screen size: about 220,000 compounds; about 2,300 (1%) were called active. The inconclusive results got no clear call from the source; some entries with a clear call stand among them for comparison. The call rests on the fitted dose curve; in most records, active means well fitted inhibition curve with a large enough effect; inconclusive means small, poorly fitted or top-dose-only effect, or effect the other way; inactive means no such curve, though single readings can be large or run the other way. No potency is given beside an inconclusive call; the fits are too rough.
# Biological target: Neuropeptide S receptor (Homo sapiens) (UniProt Q6W5P4)
# Chain of UniProt Q6W5P4 (Q6W5P4 whole entry, looked up): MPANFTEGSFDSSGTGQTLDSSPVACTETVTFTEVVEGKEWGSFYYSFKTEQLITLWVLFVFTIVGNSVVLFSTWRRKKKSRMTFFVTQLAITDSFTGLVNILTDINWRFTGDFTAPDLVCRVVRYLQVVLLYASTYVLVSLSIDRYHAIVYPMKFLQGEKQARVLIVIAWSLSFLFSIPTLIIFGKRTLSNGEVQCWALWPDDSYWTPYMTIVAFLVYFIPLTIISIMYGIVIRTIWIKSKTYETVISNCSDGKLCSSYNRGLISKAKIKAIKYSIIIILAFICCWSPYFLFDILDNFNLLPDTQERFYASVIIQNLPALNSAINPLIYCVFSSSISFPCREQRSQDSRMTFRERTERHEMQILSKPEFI
# Assay: qHTS Assay for Antagonists of the Neuropeptide S Receptor: cAMP Signal Transduction; further: nearly all actives have a fitted effect of over 50% in size
# Details: CHO-NPSR cells, cAMP TR-FRET, antagonist mode; series mostly up to 38.3 µM
# Potency means the concentration at half of the fitted maximal effect; tags describe the fitted curve by direction and shape.
row,Compound,Potency
1,CCOC(=O)C(=Cc1cc(=O)c(OC)co1)C(=O)OCC,"inconclusive [inhibitor, single point]"
2,Cc1cccc(Nc2nc(-c3ccncc3)cs2)c1,inactive
3,CCOC(=O)N1CCN(c2ccc([N+](=O)[O-])cc2)CC1,inactive
4,N#C/C(=N\Nc1ccc(F)cc1)C(=N)N1CCCCCC1,inactive
5,O=C1OCCC1Sc1ncnc2sccc12 (configuration not stated),inactive
6,CC(C)Oc1cc(NC(=O)CS(=O)CC(=O)Nc2cccc(C(F)(F)F)c2)c(Cl)cc1Cl (configuration not stated),"inconclusive [inhibitor, single point]"
7,C=CCN1C(=O)C(CC(=O)Nc2ccc(OCCC)cc2)N(CCCN2CCN(Cc3ccccc3)CC2)C1=S (configuration not stated),"inconclusive [inhibitor, single point]"
8,Cn1ncc(C(N)=O)c1NC(=S)NC(=O)c1ccc(Br)o1,inactive
9,O=c1[nH]c(NCc2ccccc2)nc2c1CCCC2,inactive
10,Cc1ccc(-c2nc(N/N=C/c3cccnc3)c3ccccc3n2)cc1,"inconclusive [inhibitor, single point]"
11,COc1ccc2c(c1)c(CCN1C(=O)c3ccccc3C1=O)cn2C(=O)c1ccco1,"inconclusive [inhibitor, single point]"
12,CCOc1ccc(-c2nc(C#N)c(N3CCCCCC3)o2)cc1,"inconclusive [inhibitor, partial curve]"
13,Cc1ccc2cc(C(c3nnnn3Cc3ccccc3)N3CCc4ccccc43)c(=O)[nH]c2c1 (configuration not stated),inactive
14,Cc1ccc(NC(=O)C(NC2CCCc3ccccc32)c2ccccc2)cc1Cl (configuration not stated),inactive
15,Cc1oc2ccc(O)cc2c1C(=O)c1ccc([N+](=O)[O-])cc1,inactive
16,COc1cc2c(cc1OC)CN(c1nc(CN3CCOCC3)nc3sc4c(c13)CCC(C)C4)CC2 (configuration not stated),"inconclusive [inhibitor, single point]"
17,CCOc1ccc(CN2CCN(Cc3c(C)nn(CC)c3C)CC2CCO)cc1 (configuration not stated),"inconclusive [activator, single point]"
18,O=C(CSc1nc2ccccc2[nH]1)NCCCn1ccnc1,"inconclusive [inhibitor, single point]"
19,Cc1ccc(-c2cc(C(=O)NC3=NCCS3)c3cc(Br)ccc3n2)o1,"inconclusive [inhibitor, single point]"
20,CCOc1ccc(NC(=O)c2cc(F)c(F)cc2Cl)cc1OCC,inactive
21,CCOC(=O)c1cc2cc(-c3c(C(=O)OCC)oc4cc(O)cc(O)c4c3=O)ccc2o1,"inconclusive [inhibitor, partial curve, poor fit]"
22,Cc1cccc(NC(=O)Cc2noc3ccccc23)c1,"inconclusive [activator, full curve, poor fit]"
23,COC(=O)c1sccc1NC(=O)Nc1ccc(Cl)c(Cl)c1,"inconclusive [inhibitor, full curve, poor fit]"
24,CCN(CC)S(=O)(=O)c1ccc(Cl)c(C(=O)OCC(=O)c2c(N)n(C)c(=O)n(C)c2=O)c1,"inconclusive [inhibitor, single point]"

row,Compound,Potency
1,Cc1ccc(Cl)cc1NC(=O)CSc1nnc(C)n1-c1ccccc1,inactive
2,CCCOc1ccc(CCc2n[nH]c(=S)n2Cc2ccccc2)cc1,"inconclusive [inhibitor, single point]"
3,CCC(=O)CCC(=O)c1ccc2ccccc2c1,inactive
4,CN(C)CC(=O)c1ccc(-c2ccccc2)cc1,inactive
5,COc1ccc(N2C(=O)CC(N(CCc3ccc(OC)c(OC)c3)C(=S)Nc3ccccc3)C2=O)cc1 (configuration not stated),inactive
6,Nc1ccc2nc(-c3ccccn3)[nH]c2c1,"inconclusive [inhibitor, single point]"
7,Nc1[nH]n(-c2ccccc2)c(=O)c1N=Nc1ccc2c(c1)OCCO2,inactive
8,O=Cc1cn(CC(=O)N2CCc3ccccc32)c2ccccc12,inactive
9,Cc1cnc(NC(=O)CSc2ccccc2)s1,inactive
10,CSc1nc(N)nc(SCC(=O)Nc2ccc(Cl)cc2)c1C#N,"inconclusive [inhibitor, partial curve]"
11,COc1ccc(C(c2nnnn2C(C)(C)C)N2CCN(c3nc4ccccc4s3)CC2)cc1OC (configuration not stated),"inconclusive [inhibitor, partial curve, poor fit]"
12,O=C(O)c1cccc(COCC(F)(F)C(F)F)c1,"inconclusive [inhibitor, partial curve]"
13,Cc1cccc(NC(=O)c2ccccc2NC(=O)C2CCCCC2)c1C,"inconclusive [inhibitor, single point]"
14,CCOC(=O)C1=C(Cc2ccc(F)cc2)C(=O)c2ccccc2C1=O,"inconclusive [inhibitor, single point]"
15,CCOC(=O)c1cnc(SC)nc1Oc1cccc(NC(=O)c2cccc(Cl)c2Cl)c1,"inconclusive [inhibitor, full curve, poor fit]"
16,O=C(/C(=C/O)N=Nc1cccc(C(F)(F)F)c1)c1ccccc1,"inconclusive [inhibitor, single point]"
17,Cc1cccc(NC(=O)c2cccc3c2-c2ccccc2C3=O)n1,inactive
18,O=C(Nc1ccc(-c2csc(Nc3ccccc3)n2)cc1)c1cc([N+](=O)[O-])cc(C(F)(F)F)c1,"inconclusive [inhibitor, single point]"
19,Cc1ccc(-n2c(SCC(=O)Nc3ccc4c(c3)OCCO4)nnc2-c2ccco2)cc1,"inconclusive [inhibitor, partial curve, poor fit]"
20,CCCCn1c(SCC(=O)N2CCN(c3ccccc3)CC2)nc2ccsc2c1=O,"inconclusive [inhibitor, single point]"
21,COc1ccc(C2CC(=O)c3cnc(N4CCc5ccccc54)nc3C2)cc1OC (configuration not stated),"inconclusive [activator, single point]"
22,CC(C)CC(NC(N)=O)C(=O)OCC(=O)NC(=O)NC1CCCC1 (configuration not stated),"inconclusive [inhibitor, single point]"
23,COC(=O)c1ccc(C2C(C(=O)OC(C)C)=C(C)N=C3SCCC(=O)N32)cc1 (configuration not stated),inactive
24,Cc1nn(-c2ccccc2)c(C)c1/C=N/n1c(-c2ccc(C(C)(C)C)cc2)n[nH]c1=S,"inconclusive [inhibitor, partial curve, poor fit]"

row,Compound,Potency
1,Cc1c(CN2CCC(CO)(Cc3cccc(C(F)(F)F)c3)CC2)c2ccccc2n1C,"inconclusive [activator, single point]"
2,COc1c(Cl)ccc(Cl)c1C(=O)NC(=S)N1CCOCC1,inactive
3,COc1ccc(C(=O)Nc2nc3c(s2)Cc2cc(OC)ccc2-3)cc1,inactive
4,COc1ccc(N(C)C(=O)Nc2ccc3c(c2)nnn3C)cc1,"inconclusive [inhibitor, single point]"
5,O=[N+]([O-])c1cn(Cc2ccc(Cl)cc2)cn1,inactive
6,Fc1ccc(CNC(=S)Nc2cccc(C(F)(F)F)c2)cc1,"inconclusive [inhibitor, single point]"
7,Cc1nnc(Sc2nc3ccccc3o2)c2ccccc12,inactive
8,COc1cccc(C2C3=C(N=c4s/c(=C\c5cccc(O)c5)c(=O)n42)c2ccccc2CC3)c1OC (configuration not stated),"inconclusive [inhibitor, single point]"
9,CCC1CCCCN1C(=O)c1cc(-c2ccc(Cl)c(Cl)c2)on1 (configuration not stated),"inconclusive [inhibitor, partial curve]"
10,FC(F)(F)c1nc(-c2ccccc2)ncc1-c1nnnn1-c1ccccc1,"inconclusive [inhibitor, single point]"
11,O=C(CSCc1ccccn1)Nc1ccccc1,inactive
12,COc1ccccc1CNCC(=O)Nc1cc(S(=O)(=O)N2CCCCCC2)ccc1Cl,"inconclusive [activator, full curve, poor fit]"
13,CCC(c1nnnn1Cc1ccco1)N(Cc1cc2cc(OC)ccc2[nH]c1=O)C1CCCCC1 (configuration not stated),"inconclusive [inhibitor, partial curve, poor fit]"
14,CCn1c(=O)cc(SCC(=O)N2CCN(c3ccccc3OC)CC2)c2ccccc21,"inconclusive [inhibitor, partial curve]"
15,Cc1ccc(NC(=O)c2ccc(-n3cccn3)c([N+](=O)[O-])c2)cc1C,"inconclusive [inhibitor, partial curve, poor fit]"
16,CN1CCN(C(=O)c2cc(C(C)(C)C)cc(C(C)(C)C)c2)CC1,inactive
17,CC1Cc2ccccc2N1C(=O)CNc1ccccc1N1CCCCC1 (configuration not stated),inactive
18,Cc1ccc(Nc2nc(-c3c(C)nc4ccccn34)cs2)cc1,"inconclusive [activator, full curve]"
19,O=C(CSc1ccc(Cl)cc1)Nc1ccccc1N1CCN(C(=O)c2ccccc2)CC1,"inconclusive [inhibitor, partial curve]"
20,Cc1cccc(NC(=S)NC(=O)CCc2ccccc2)c1C,"inconclusive [inhibitor, single point]"
21,N#CC1(C#N)C(c2ccccc2)OC23CCCCCC2C1(C#N)C(=N)O3 (configuration not stated),inactive
22,COc1ccc(-c2cc(C(=O)N3CCCc4ccccc43)no2)cc1,"inconclusive [inhibitor, partial curve, poor fit]"
23,N=S(=O)(O)Cc1noc2ccccc12,inactive
24,Brc1ccc(-n2cc(-c3ccccc3)c3c(NN4CCOCC4)ncnc32)cc1,"inconclusive [inhibitor, partial curve]"
